# In PubChem BioAssay AID1347417 (National Center for Advancing Translational Sciences (NCATS), 2020):
# About 5,300 (4.4%) of roughly 120,000 compounds were called active. This list was built around the results that the source calls inconclusive (neither active nor inactive); the mix of calls is not that of the screen. Calls come from the whole dose curve; as a rule, active = well fitted inhibition curve with a large enough effect; inconclusive = small, poorly fitted or top-dose-only effect; inactive = no such curve, though single readings can be large or run the other way. Potencies beside an inconclusive call are fits to weak or partial responses and may not hold up.
# Test: qHTS Primary assay for Inhibitors of Plasmodium falciparum Dd2 growth in vitro; note: nearly all actives have a fitted effect of over 65% in size
# Conditions: P. falciparum Dd2 growth, SYBR Green, 72 h; series mostly up to 28.9 µM
# Outline: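 Readout: SYBR Green fluorescence, 485 nm excitation, 535 nm emission, after ~16 h lysis at 37C. Before that, Dd2-infected red cells (2.5% hematocrit) grew 72 h with compound, 29 uM top final concentration.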
# Potency is the fitted concentration of half-maximal effect; tags give direction and shape of the fitted curve.
row,SMILES,Potency
1,N#Cc1ccc(CN2CCCC(c3nc(-c4cnccn4)no3)CCNC(=O)CC2)cc1 (stereo not drawn),"inconclusive: 1.78 µM [inhibitor, partial curve, poor fit]"
2,COc1cc(C)c(-c2nc(CN3CCCC(CN)C3)c(C)o2)cc1C (stereo not drawn),"inconclusive: 2.51 µM [inhibitor, full curve]"
3,O=C(NCc1ccccc1)C1CCC(=O)N1C1CCN(C(=O)Cc2ccccc2F)CC1 (stereo not drawn),inactive
4,COc1ccc(NC(=O)/C=C\C(=O)N(c2ccc(C(C)C)cc2)C(C(=O)NCc2ccco2)c2ccc(C)cc2)cc1 (stereo not drawn),active: 10 µM
5,COc1cccc(Nc2nc3cc(C)ccc3nc2NS(=O)(=O)c2ccc(Cl)cc2)c1,"inconclusive: 5.62 µM [inhibitor, partial curve, poor fit]"
6,NC(=O)[C@H](Cc1ccc(O)cc1)NC(=O)C1=C[C@@H](NC(=O)c2cnccn2)[C@@H](O)[C@H](O)C1,inactive
7,COc1ccc(CN2C=C(C(=O)OCc3noc(-c4cccc(OC)c4)n3)C(C)=NS2(=O)=O)cc1,"inconclusive: 12.6 µM [inhibitor, single point]"
8,COc1cc2c(cc1OCc1ccccc1)N(C(=O)c1cnn(C)c1)CC21CCN(C)CC1,"inconclusive: 17.8 µM [inhibitor, single point]"
9,CN1CCc2c([nH]c3ccccc23)C12CCN(C(=O)c1ccccn1)CC2,"inconclusive: 12.6 µM [inhibitor, single point]"
10,CCOC(=O)CCCOc1cccn2c(=O)c(-c3cc(C)n(-c4ccc(Cl)cc4)n3)c(C)nc12,"inconclusive: 2 µM [inhibitor, full curve, poor fit]"
11,COc1cc(Cl)ccc1-c1ccc(COc2ccc3c(cnn3CCC(=O)O)c2)cc1,"inconclusive: 12.6 µM [inhibitor, single point]"
12,OC[C@@H]1CN(Cc2cccc3[nH]ccc23)C[C@H]1c1ccncc1,"inconclusive: 1.58 µM [inhibitor, partial curve, poor fit]"
13,COc1ccc(CCNC(=O)c2ccc3c(c2)sc2nc(-c4ccccc4)cn23)cc1OC,"inconclusive: 10 µM [inhibitor, single point]"
14,Cc1ccc(C2Cn3cnc(C(=O)N4CCC(C(=O)NCc5ccccc5)CC4)c3CO2)cc1 (stereo not drawn),"inconclusive: 2.82 µM [inhibitor, partial curve, poor fit]"
15,CCOC(=O)c1cc(-c2ccc(OC)cc2)n(CCC(=O)NCCc2ccccc2)c1C,inactive
16,COc1ccc(NC(=O)N2C[C@@H]3C[C@H](C2)c2ccc(NS(=O)(=O)c4ccc(OC)cc4)c(=O)n2C3)cc1,"inconclusive: 6.31 µM [inhibitor, partial curve, poor fit]"
17,Cc1oc(C(C)C)cc1C(=O)N1CC[C@](C)(O)[C@@H](O)C1,"inconclusive: 0.178 µM [inhibitor, full curve, poor fit]"
18,Cc1ccc(C(=O)N2CCN(c3nnc4cccc(C)n34)CC2)cc1C,"inconclusive: 4.47 µM [inhibitor, partial curve]"
19,O=C(Nc1cc(F)cc(C(F)(F)F)c1)N1CCCOC(Cn2cccn2)C1 (stereo not drawn),inactive
20,O=c1n(-c2ccc([N+](=O)[O-])cc2)nc2n1CCN(Cc1ccsc1)C2,"inconclusive: 11.2 µM [inhibitor, single point]"
21,CC(=O)Nc1cccc(C(=O)N2CCCC(n3cc(-c4nc(C5CC5)no4)nn3)C2)c1 (stereo not drawn),"inconclusive: 4.47 µM [inhibitor, partial curve, poor fit]"

row,SMILES,Potency
1,Cc1cc(C(=O)N2CCCCCC2CN2CCC(C)CC2)nn1C (stereo not drawn),"inconclusive: 4.47 µM [inhibitor, partial curve]"
2,CC(=O)c1cccc(NC(=O)CN2C(=O)c3ccccc3Sc3ncccc32)c1,"inconclusive: 17.8 µM [inhibitor, single point]"
3,COc1ccc(-n2nc3c(N4CCC(C(=O)NCc5cccc(F)c5)CC4)nnc(C)c3c2C)cc1,"inconclusive: 5.01 µM [inhibitor, partial curve]"
4,Cc1ccc(NC(=O)N2C[C@H](c3nc(-c4cccnc4)no3)[C@@H](C)C2)cc1,"inconclusive: 0.355 µM [inhibitor, partial curve, poor fit]"
5,Cc1ccc(-c2nc3ccccc3[nH]2)cc1NC(=O)COc1ccccc1[N+](=O)[O-],"inconclusive: 3.55 µM [inhibitor, full curve, poor fit]"
6,COc1cccc(CNC2CCCc3nc(-c4cccnc4)ncc32)c1 (stereo not drawn),"inconclusive: 12.6 µM [inhibitor, single point]"
7,Cc1noc(C)c1CN1C[C@H]2CN(S(C)(=O)=O)C[C@@]2(C(=O)O)C1,inactive
8,CC1CCN(c2nc3c(S(=O)(=O)c4ccccc4)nnn3c3ccc(Cl)cc23)CC1,active: 1.12 µM
9,Cc1ccc(CN2CCC3(CCNCC3)C2)c(Cl)c1Cl,active: 12.6 µM
10,CC1Oc2ccc(NC(=O)c3cccs3)cc2CN(CCc2ccc(F)cc2)C1=O (stereo not drawn),"inconclusive: 0.178 µM [inhibitor, full curve, poor fit]"
11,COc1ccc(C2C=C(c3ccc(F)cc3)Nc3nc(-c4ccc(Cl)cc4)nn32)cc1 (stereo not drawn),active: 1.12 µM
12,C=CCCC(CN1CCCOCC1)Oc1ccc2cccc(OC)c2n1 (stereo not drawn),"inconclusive: 12.6 µM [inhibitor, partial curve, poor fit]"
13,Cc1ccccc1Cn1c(CN2CCC(C(=O)NCc3cccnc3)CC2)cc2ccccc21,"inconclusive: 17.8 µM [inhibitor, single point]"
14,COCCNC(=O)C(NC(=O)c1ccccc1C)C1CCN(C(=O)c2ccccc2F)CC1 (stereo not drawn),inactive
15,Cc1nccc(N2CCC(COc3ccc4c(cnn4CC[S+](C)(=O)[O-])c3)CC2)n1,"inconclusive: 10 µM [inhibitor, single point]"
16,CC1=C(C(=O)NCc2ccccc2Cl)C2(CCCCCC2)OC1=O,"inconclusive: 20 µM [inhibitor, partial curve, poor fit]"
17,Cc1noc(C)c1-c1cnc(Nc2ccc(CN3CCN(C)CC3)cc2)c2c1CCO2,active: 5.62 µM
18,CCN(Cc1ccncc1)C(=O)c1coc(COc2cccc(C(F)(F)F)c2)n1,"inconclusive: 20 µM [inhibitor, single point]"
19,O=C(c1cc2c(s1)CCCC2)N1CCc2c(nc3cc[nH]n3c2=O)C1,"inconclusive: 0.891 µM [inhibitor, partial curve]"
20,Cc1nnsc1C(=O)N[C@H]1CCN(C(=O)c2ccco2)[C@H](C(=O)N[C@H](Cc2c[nH]c3ccccc23)C(N)=O)C1,inactive
21,CC(=O)Nc1cccc(-c2nccc3c(=O)cc(N4CCOCC4)oc23)c1,inactive

row,SMILES,Potency
1,Cc1cc(C)c(CN2CCC(n3cc(C(C)(C)N)nn3)CC2)c(C)c1,"inconclusive: 15.8 µM [inhibitor, partial curve, poor fit]"
2,O=C(NCCc1noc(-c2ccncc2)n1)NC1CCCCC1,inactive
3,O=C(c1ccoc1)N1C[C@H]2OC(=O)N(CCCN3CCOCC3)[C@H]2C1,inactive
4,COc1ccccc1-c1nc2cnccn2c1NCCC(=O)Nc1ccc(C)cc1C,"inconclusive: 3.55 µM [inhibitor, single point]"
5,CNC(=O)N1CCCC1c1nc(C2CN(C(=O)Cc3cccc(F)c3)C2)no1 (stereo not drawn),inactive
6,O=[S+]([O-])(NCC1CN(Cc2ccc(O)cc2)CC12CN(c1ccccc1)C2)c1ccccc1 (stereo not drawn),"inconclusive: 0.708 µM [inhibitor, partial curve]"
7,Cc1ccc(CN2COc3ccc4c(C)cc(=O)oc4c3C2)cc1,active: 3.98 µM
8,CCOc1cccc(CNC(=O)c2ccc3c(c2)N(S(=O)(=O)c2ccccc2)CC3)c1,"inconclusive: 10 µM [inhibitor, partial curve]"
9,CCc1noc(-c2cn(C3CCN(C(=O)c4cc(F)cc(F)c4)CC3)nn2)n1,"inconclusive: 1.26 µM [inhibitor, partial curve, poor fit]"
10,CC(C)c1ccc(C2Sc3ccccc3NC3=C2C(=O)c2ccccc23)cc1 (stereo not drawn),active: 3.55 µM
11,CN1[C@@H](CCC(=O)NCc2ccc(F)cc2)CNC(=O)[C@@H]2[C@H]1CCN2Cc1nc2ccccc2n1C,"inconclusive: 7.08 µM [inhibitor, partial curve, poor fit]"
12,Cc1ccc(C(=O)N2CCC(n3cc(-c4nc(C5CC5)no4)nn3)C2)cc1C (stereo not drawn),inactive
13,COc1ccc(Nc2oc(-c3ccc(COc4cccc(C)c4)o3)nc2C#N)cc1,"inconclusive: 3.55 µM [inhibitor, partial curve]"
14,O=C(CCCc1ccccc1)Nc1ccnn1C1CCN(C(=O)Cc2ccccc2F)CC1,"inconclusive: 14.1 µM [inhibitor, single point]"
15,Cn1nnnc1SCCCNCc1ccc(Cl)cc1,inactive
16,O=C(NCCc1ccccc1)N1CCCCCC1CN1CCOCC1 (stereo not drawn),active: 7.94 µM
17,Cc1cnc(CN(C)C(=O)C2CCCN(C3CCN(Cc4ccncc4)CC3)C2)[nH]1 (stereo not drawn),inactive
18,Cc1cccc(S(=O)(=O)Nc2cccc(-c3ccc(N4CCCCC4)nn3)c2)c1,"inconclusive: 11.2 µM [inhibitor, single point]"
19,N#Cc1ccc(S(=O)(=O)N2CCCCCNC(=O)CC2c2ccccc2)cc1 (stereo not drawn),"inconclusive: 17.8 µM [inhibitor, partial curve, poor fit]"
20,COc1ccccc1-c1cc(C(=O)NCc2c(C)cc(C)[nH]c2=O)c2c(c1)ncn2C,"inconclusive: 31.6 µM [inhibitor, single point]"
21,CN1C(=O)C2(CCN([S+](=O)([O-])c3cccc(C(F)(F)F)c3)C2)c2ccccc21 (stereo not drawn),inactive
